This is one part of the list.
Columns and labels:
Experiment in all cases: glycan array binding signal (z-score within array); higher = stronger binding
Conditions in all cases: glycan notation: IUPAC condensed, linker removed
[1] = target: Fuc(a1-2)Gal
How it was run: (§1)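 Glycan array binding is given as a within-array Z-score, which can be read as non-binding when negative. The arrays, 3228 of them, came from the Consortium for Functional Glycomics database and were retained only where the protein sequence was available. Z-scores were averaged across arrays of the same protein sequence at different concentrations or buffers and across linkers.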

[2] = target: Fuc(a1-2)Gal(b1-3)GalNAc
How it was run: as §1

[3] = target: Fuc(a1-2)Gal(b1-3)GalNAc(a1-3)[Fuc(a1-2)]Gal(b1-4)Glc
How it was run: as §1

[4] = target: Fuc(a1-2)Gal(b1-3)GalNAc(a1-3)[Fuc(a1-2)]Gal(b1-4)GlcNAc
How it was run: as §1

[5] = target: Fuc(a1-2)Gal(b1-3)GalNAc(b1-3)Gal
How it was run: as §1

[6] = target: Fuc(a1-2)Gal(b1-3)GalNAc(b1-3)Gal(a1-4)Gal(b1-4)Glc
How it was run: as §1

[7] = target: Fuc(a1-2)Gal(b1-3)GalNAc(b1-4)[Neu5Ac(a2-3)]Gal(b1-4)Glc
How it was run: as §1

[8] = target: Fuc(a1-2)Gal(b1-3)GlcNAc
How it was run: as §1

[9] = target: Fuc(a1-2)Gal(b1-3)GlcNAc(b1-2)Man(a1-3)[Fuc(a1-2)Gal(b1-3)GlcNAc(b1-2)Man(a1-6)]Man(b1-4)GlcNAc(b1-4)GlcNAc
How it was run: as §1

[10] = target: Fuc(a1-2)Gal(b1-3)GlcNAc(b1-2)Man(a1-3)[Fuc(a1-2)Gal(b1-3)GlcNAc(b1-2)Man(a1-6)]Man(b1-4)GlcNAc(b1-4)[Fuc(a1-6)]GlcNAc
How it was run: as §1

[11] = target: Fuc(a1-2)Gal(b1-3)GlcNAc(b1-3)Gal(b1-4)Glc
How it was run: as §1

[12] = target: Fuc(a1-2)Gal(b1-3)GlcNAc(b1-3)GalNAc
How it was run: as §1

[13] = target: Fuc(a1-2)Gal(b1-3)GlcNAc(b1-3)[Fuc(a1-2)Gal(b1-3)GlcNAc(b1-6)]GalNAc
How it was run: as §1

[14] = target: Fuc(a1-2)Gal(b1-3)GlcNAc(b1-3)[Gal(b1-4)GlcNAc(b1-6)]Gal(b1-4)Glc
How it was run: as §1

[15] = target: Fuc(a1-2)Gal(b1-3)GlcNAc(b1-3)[Neu5Ac(a2-6)Gal(b1-4)GlcNAc(b1-6)]Gal(b1-4)Glc
How it was run: as §1

[16] = target: Fuc(a1-2)Gal(b1-3)GlcNAc6S
How it was run: as §1

[17] = target: Fuc(a1-2)Gal(b1-3)[Fuc(a1-4)]GlcNAc
How it was run: as §1

[18] = target: Fuc(a1-2)Gal(b1-3)[Fuc(a1-4)]GlcNAc(b1-2)Man(a1-3)[Fuc(a1-2)Gal(b1-3)[Fuc(a1-4)]GlcNAc(b1-2)Man(a1-3)]Man(b1-4)GlcNAc(b1-4)GlcNAc
How it was run: as §1

[19] = target: Fuc(a1-2)Gal(b1-3)[Fuc(a1-4)]GlcNAc(b1-2)Man(a1-3)[Fuc(a1-2)Gal(b1-3)[Fuc(a1-4)]GlcNAc(b1-2)Man(a1-6)]Man(b1-4)GlcNAc(b1-4)[Fuc(a1-6)]GlcNAc(b1-4)[Fuc(a1-6)]GlcNAc
How it was run: as §1

[20] = target: Fuc(a1-2)Gal(b1-3)[Fuc(a1-4)]GlcNAc(b1-3)[Fuc(a1-3)[Gal(b1-4)]GlcNAc(b1-6)]Gal(b1-4)Glc
How it was run: as §1

[21] = target: Fuc(a1-2)Gal(b1-3)[Fuc(a1-4)]GlcNAc(b1-3)[Gal(b1-4)GlcNAc(b1-6)]Gal(b1-4)Glc
How it was run: as §1

[22] = target: Fuc(a1-2)Gal(b1-4)Glc
How it was run: as §1

[23] = target: Fuc(a1-2)Gal(b1-4)Glc6S
How it was run: as §1

[24] = target: Fuc(a1-2)Gal(b1-4)GlcNAc
How it was run: as §1

[25] = target: Fuc(a1-2)Gal(b1-4)GlcNAc(b1-2)Man
How it was run: as §1

[26] = target: Fuc(a1-2)Gal(b1-4)GlcNAc(b1-2)Man(a1-3)[Fuc(a1-2)Gal(b1-4)GlcNAc(b1-2)Man(a1-6)]Man(b1-4)GlcNAc(b1-4)GlcNAc
How it was run: as §1

[27] = target: Fuc(a1-2)Gal(b1-4)GlcNAc(b1-2)Man(a1-3)[Fuc(a1-2)Gal(b1-4)GlcNAc(b1-2)Man(a1-6)]Man(b1-4)GlcNAc(b1-4)[Fuc(a1-6)]GlcNAc
How it was run: as §1

[28] = target: Fuc(a1-2)Gal(b1-4)GlcNAc(b1-2)[Fuc(a1-2)Gal(b1-4)GlcNAc(b1-4)]Man(a1-3)[Fuc(a1-2)Gal(b1-4)GlcNAc(b1-2)Man(a1-6)]Man(b1-4)GlcNAc(b1-4)GlcNAc
How it was run: as §1

[29] = target: Fuc(a1-2)Gal(b1-4)GlcNAc(b1-3)Gal(b1-4)GlcNAc
How it was run: as §1

[30] = target: Fuc(a1-2)Gal(b1-4)GlcNAc(b1-3)Gal(b1-4)GlcNAc(b1-2)Man(a1-3)[Fuc(a1-2)Gal(b1-4)GlcNAc(b1-3)Gal(b1-4)GlcNAc(b1-2)Man(a1-6)]Man(b1-4)GlcNAc(b1-4)GlcNAc
How it was run: as §1

[31] = target: Fuc(a1-2)Gal(b1-4)GlcNAc(b1-3)Gal(b1-4)GlcNAc(b1-3)Gal(b1-4)GlcNAc
How it was run: as §1

[32] = target: Fuc(a1-2)Gal(b1-4)GlcNAc(b1-3)GalNAc
How it was run: as §1

[33] = target: Fuc(a1-2)Gal(b1-4)GlcNAc(b1-3)[Fuc(a1-2)Gal(b1-4)GlcNAc(b1-6)]GalNAc
How it was run: as §1

[34] = target: Fuc(a1-2)Gal(b1-4)GlcNAc(b1-3)[Fuc(a1-3)[Gal(b1-4)]GlcNAc(b1-6)]Gal(b1-4)Glc
How it was run: as §1

[35] = target: Fuc(a1-2)Gal(b1-4)GlcNAc(b1-6)GalNAc
How it was run: as §1

[36] = target: Fuc(a1-2)Gal(b1-4)GlcNAc6S
How it was run: as §1

[37] = target: Fuc(a1-2)Gal(b1-4)[Fuc(a1-3)]GlcNAc
How it was run: as §1

B1: LecRKVI.2 (protein)
chain: RTTTNFAFRGFNGNQSKIRIEGAAMIKPDGLLRLTDRKSNVTGTAFYHKPVRLLNRNSTNVTIRSFSTSFVFVIIPSSSSNKGFGFTFTLSPTPYRLNAGSAQYLGVFNKENNGDPRNHVFAVEFDTVQGSRDDNTDRIGNDIGLNYNSRTSDLQEPVVYYNNDDHNKKEDFQLESGNPIQALLEYDGATQMLNVTVYPARLGFKPTKPLISQHVPKLLEIVQEEMYVGFTASTGKGQSSAHYVMGWSFSSGGERPIADVLILSELPPPPPNKAKKEGLNS
**Q.** Which results are given for B1?
**A.** glycan array binding signal (z-score) [1]: -0.333; glycan array binding signal (z-score) [2]: -0.345; glycan array binding signal (z-score) [3]: -0.453; glycan array binding signal (z-score) [4]: -0.334; glycan array binding signal (z-score) [5]: -0.291; glycan array binding signal (z-score) [6]: -0.133; glycan array binding signal (z-score) [7]: -0.34; glycan array binding signal (z-score) [8]: -0.368; glycan array binding signal (z-score) [9]: 2.66; glycan array binding signal (z-score) [10]: -0.373; glycan array binding signal (z-score) [11]: -0.378; glycan array binding signal (z-score) [12]: -0.385; glycan array binding signal (z-score) [13]: 0.031; glycan array binding signal (z-score) [14]: -0.237; glycan array binding signal (z-score) [15]: -0.471; glycan array binding signal (z-score) [16]: -0.436; glycan array binding signal (z-score) [17]: -0.312; glycan array binding signal (z-score) [18]: -0.325; glycan array binding signal (z-score) [19]: -0.21; glycan array binding signal (z-score) [20]: -0.439; glycan array binding signal (z-score) [21]: -0.205; glycan array binding signal (z-score) [22]: -0.455; glycan array binding signal (z-score) [23]: -0.326; glycan array binding signal (z-score) [24]: -0.313; glycan array binding signal (z-score) [25]: -0.323; glycan array binding signal (z-score) [26]: 3.27; glycan array binding signal (z-score) [27]: -0.27; glycan array binding signal (z-score) [28]: -0.369; glycan array binding signal (z-score) [29]: -0.395; glycan array binding signal (z-score) [30]: 1.34; glycan array binding signal (z-score) [31]: -0.314; glycan array binding signal (z-score) [32]: -0.305; glycan array binding signal (z-score) [33]: 0.911; glycan array binding signal (z-score) [34]: -0.413; glycan array binding signal (z-score) [35]: -0.297; glycan array binding signal (z-score) [36]: -0.419; glycan array binding signal (z-score) [37]: -0.399

From the supplement of paper PMC8728848
